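Step 1: Grow cells in 96-well plates. Step 2: Expose to compound for 48 hours at 5 concentrations. Step 3: Interpolate endpoints linearly; if unreached, use highest concentration. Here, GI50 denotes the concentration required for 50% inhibition of growth.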 The source made the active and inactive calls. Cut-off read from the data, not from the text of the source: active = GI50 up to about 1.1 µM and inactive = higher.
The molecules below were run on NCI-H322M (assay: inhibition of tumour cell growth, NCI panel, 48 h).

| SMILES | GI50 |
| --- | --- |
| O=C(O)CCC(=O)OCN1C(=O)C2C3C=CC(C2C1=O)C1C2C(=O)N(COC(=O)CCC(=O)O)C(=O)C2C31 (configuration not stated) | inactive: > 100 µM |
| CCOC1c2cc(C(C)C)c(O)c(O)c2[C@@]23CCCC(C)(C)C2C1OC3=O (some centres not stated) | inactive: > 100 µM |
| CN(C)/C=N/S(=O)(=O)c1nn2c(C=O)c(-c3cc4ccccc4oc3=O)nc2s1 | inactive: 23.8 µM |
| O=C1C(CN(Cc2ccccc2)Cc2ccccc2)CCCC1CN(Cc1ccccc1)Cc1ccccc1 (configuration not stated) | inactive: > 73.5 µM |
| CSc1c(CC(=O)Nc2ccc(Cl)cc2)n(Cc2ccccc2)c2ccccc12 | inactive: 22.2 µM |
| CN(C)/C=N\c1nncc2[nH]nnc12 | inactive: > 100 µM |
| CCOc1ccc(N/C(=C(/C(Cl)=C(/Cl)NCCO)[N+](=O)[O-])n2nnc3ccccc32)cc1 | inactive: 49.2 µM |
| CCOc1nc2sc3c(c2c(=O)n1CCSSCCn1c(OCC)nc2sc4c(c2c1=O)CCCC4)CCCC3 | inactive: > 100 µM |
| O=[N+]([O-])c1cccc(/C=N/C23CC4CC(CC(C4)C2)C3)c1 | inactive: > 100 µM |
| COC(=O)Cc1c(C2=Nc3ccccc3C2(O)CC(=O)OC)[nH]c2ccccc12 (configuration not stated) | inactive: 50 µM |
| CO[C@H]1C[C@H](n2cc(C)c(=O)[nH]c2=O)O[C@@H]1CO | inactive: > 100 µM |
| CC(=O)CCCCn1c(=O)c2c(nc(Br)n2C)n(C)c1=O | inactive: > 100 µM |
| Clc1ccc(OCc2nnc3n2N=C(c2ccccc2)CS3)cc1 | inactive: > 10 µM |
| CC(C(=O)O)C(C)(O)C(=O)O (configuration not stated) | inactive: > 100 µM |
| CCNC(=S)N/N=C1\C(=O)Nc2ccc([N+](=O)[O-])cc21 | inactive: 37.1 µM |
| Cc1ccc(NC(=O)CCC(=O)C(C#N)c2ccccc2)cc1C (configuration not stated) | inactive: > 100 µM |
| Nc1nn2c(C(Br)Br)cc(C(Br)Br)nc2c1[N+](=O)[O-] | inactive: 3.3 µM |
| CC(C)(C)OC(=O)NCCC1CN(C(=O)c2ccccc2)c2ccccc21 (configuration not stated) | inactive: 79.8 µM |
| Cc1nnc2n1N=C(c1cc(F)c(Cl)cc1Cl)/C(=C/c1ccc3c(c1)OCO3)S2 | inactive: 23.8 µM |

| SMILES | GI50 |
| --- | --- |
| CC(O)CNC(=O)Nc1c(C(F)(F)F)cc(-c2ccccc2)[nH]c1=O (configuration not stated) | inactive: > 100 µM |
| CC(C)Oc1c(-c2c(OC(C)C)c(=O)c2=O)c(=O)c1=O | inactive: > 79.6 µM |
| c1cc(CSP234N5CCN2CCN3CCN4CC5)ccc1CSP123N4CCN1CCN2CCN3CC4 | inactive: > 100 µM |
| Nc1nc(Cl)cc(NCC2(CO)CC(Cc3ccccc3)C2)n1 (configuration not stated) | inactive: > 69.3 µM |
| COC(=O)C1=Cc2cc(OC)c(O)cc2[C@@H](c2ccc(O)c(OC)c2)[C@@H]1C(=O)OC | inactive: > 100 µM |
| [O-]/N=[N+](/[O-])C1CCCCC1=[N+]1CCOCC1 (configuration not stated) | inactive: > 100 µM |
| CCOC(=O)C1(C(=O)OCC)CC=C(C)CC12C(=O)Nc1ccccc12 (configuration not stated) | inactive: > 100 µM |
| O=C(c1ccc(Cl)cc1)C1OC12C(=O)Nc1ccccc12 (configuration not stated) | inactive: 29.1 µM |
| NCc1nnn(Cc2ccccc2)c1N | inactive: > 100 µM |
| N#C/C(=C/c1ccco1)C(=O)c1ccccc1 | inactive: > 100 µM |
| COc1ccc(/C(Cl)=C(\C=O)c2ccc(F)cc2)cc1OC | inactive: 19.3 µM |
| Cn1c(-c2ccccc2)cc(-c2cccs2)c1-c1ccsc1 | inactive: > 100 µM |
| CC(C)(C)C(=O)C(c1ccc(-c2cscn2)cc1)c1ccc(-c2cscn2)cc1 | inactive: 90.6 µM |
| CSc1nc(C)cc(=O)n1C1OC(COC(C)=O)C(OC(C)=O)C(OC(C)=O)C1OC(C)=O (configuration not stated) | inactive: > 100 µM |
| CC/C(CC(=O)CCC(=O)Nc1c(C)cccc1C)=N\NC(=O)NN | inactive: > 100 µM |
| CCCS(=O)(=O)/C(=C(\c1ccc(Br)cc1)S(=O)(=O)CCC)c1ccc(Br)cc1 | inactive: > 10 µM |
| COc1ccc2c(c1)CCc1c-2[nH]c2ccc(OC)cc12 | inactive: > 100 µM |
| O=C(CCc1nnc2s/c(=C\c3ccc(Cl)cc3Cl)c(=O)n12)Nc1cc(Cl)c(Cl)cc1Cl | inactive: > 10 µM |

Reference: ChEMBL document CHEMBL1201862, “PubChem BioAssay data set” (2004)
